In experiment [1] the target is maltose-binding protein (MBP)-tagged full-length human DDX6 (human) (UniProt P26196). The experiment can be described thus: pull-down.
Experiment [2] shares this target. As to the kind of experiment: pull-down. The source holds these as a separate data set.

Read-outs that look alike come from different tables or passages of the source.

Chain of UniProt P26196 (P26196 whole entry): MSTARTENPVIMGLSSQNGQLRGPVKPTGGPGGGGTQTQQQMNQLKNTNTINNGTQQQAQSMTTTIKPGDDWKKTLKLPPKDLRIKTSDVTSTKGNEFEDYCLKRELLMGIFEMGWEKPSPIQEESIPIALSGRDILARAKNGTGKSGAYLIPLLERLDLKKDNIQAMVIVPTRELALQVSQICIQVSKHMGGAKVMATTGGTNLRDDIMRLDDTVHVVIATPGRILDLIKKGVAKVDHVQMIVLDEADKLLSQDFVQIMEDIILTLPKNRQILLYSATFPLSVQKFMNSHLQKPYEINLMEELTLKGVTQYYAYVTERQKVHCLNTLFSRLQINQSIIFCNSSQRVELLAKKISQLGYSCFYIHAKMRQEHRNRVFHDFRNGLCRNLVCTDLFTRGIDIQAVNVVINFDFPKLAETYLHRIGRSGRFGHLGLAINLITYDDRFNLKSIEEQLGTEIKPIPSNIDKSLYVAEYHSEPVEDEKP

Regarding “human CNOT1 (endogenous, cell lysate) (a stretch of the chain, chain not printed) (natural protein)”, the percent of input coprecipitated in experiment [1] and in experiment [2] was under 1 % input in each case.

The values above are taken from PMC4138323.
